{
  "source": "PubChem BioAssay AID504332",
  "about": "(National Center for Advancing Translational Sciences (NCATS), 2011)",
  "note": "Among all 350,000 compounds or so, about 31,000 (8.9%) were called active. This list was built around the results that the source calls inconclusive (neither active nor inactive); the mix of calls is not that of the screen. Calls follow the shape of the dose curve; as a rule, active = well fitted inhibition curve with a large enough effect; inconclusive = small, poorly fitted or top-dose-only effect; inactive = no such curve, though single readings can be large or run the other way. A potency beside an inconclusive call is a rough fit, not a confirmed value. % is scaled to controls: 0 for no effect and ±100 for the full control effect; potency is read from the fitted curve at half-maximal effect; tags tell the direction and shape of the fitted curve.",
  "data": [
    {"target": "Histone-lysine N-methyltransferase EHMT2 (Homo sapiens) (UniProt Q96KQ7)", "sequence (Q96KQ7 whole entry, looked up)": "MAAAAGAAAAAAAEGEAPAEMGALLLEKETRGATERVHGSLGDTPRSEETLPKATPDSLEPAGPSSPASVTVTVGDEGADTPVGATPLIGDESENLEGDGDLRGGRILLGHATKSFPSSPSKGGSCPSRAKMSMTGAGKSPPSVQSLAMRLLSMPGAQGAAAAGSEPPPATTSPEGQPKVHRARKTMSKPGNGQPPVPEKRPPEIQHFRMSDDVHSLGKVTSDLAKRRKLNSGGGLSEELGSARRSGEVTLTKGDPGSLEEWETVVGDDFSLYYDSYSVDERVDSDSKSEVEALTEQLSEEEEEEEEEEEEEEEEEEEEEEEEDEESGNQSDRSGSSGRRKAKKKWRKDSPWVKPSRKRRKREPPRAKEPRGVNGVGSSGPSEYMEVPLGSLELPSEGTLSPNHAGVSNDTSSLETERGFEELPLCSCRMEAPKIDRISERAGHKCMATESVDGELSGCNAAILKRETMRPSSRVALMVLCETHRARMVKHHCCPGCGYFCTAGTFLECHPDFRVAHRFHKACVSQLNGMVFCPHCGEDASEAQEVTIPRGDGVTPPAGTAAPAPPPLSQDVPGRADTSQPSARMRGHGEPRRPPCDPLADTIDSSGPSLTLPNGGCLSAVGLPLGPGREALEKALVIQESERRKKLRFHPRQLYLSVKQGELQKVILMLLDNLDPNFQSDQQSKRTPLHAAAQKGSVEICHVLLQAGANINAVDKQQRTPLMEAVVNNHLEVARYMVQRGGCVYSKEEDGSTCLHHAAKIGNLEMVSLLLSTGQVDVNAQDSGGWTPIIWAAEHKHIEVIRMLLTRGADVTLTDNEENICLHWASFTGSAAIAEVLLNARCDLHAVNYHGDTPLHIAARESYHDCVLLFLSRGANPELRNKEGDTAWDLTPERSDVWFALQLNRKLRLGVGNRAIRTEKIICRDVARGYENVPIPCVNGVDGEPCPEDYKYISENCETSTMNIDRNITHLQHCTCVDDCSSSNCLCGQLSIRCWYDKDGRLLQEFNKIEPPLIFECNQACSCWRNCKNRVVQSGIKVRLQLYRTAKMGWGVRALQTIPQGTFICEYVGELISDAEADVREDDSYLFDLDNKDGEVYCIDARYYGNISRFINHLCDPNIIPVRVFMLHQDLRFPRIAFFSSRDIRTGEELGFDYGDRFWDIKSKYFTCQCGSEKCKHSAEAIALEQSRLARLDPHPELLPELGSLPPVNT", "experiment": "qHTS Assay for Inhibitors of Histone Lysine Methyltransferase G9a; also: nearly all actives have a fitted effect of over 75% in size", "details": "G9a H3K9 monomethylation, AlphaScreen, 2 h; activity, negative = inhibition: at 59 µM (top of the series) unless noted", "method_in_brief": "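AlphaScreen read-out: biotin-H3K9 peptide (500 nM) methylation by 20 nM enzyme with 20 uM SAM, 2 h at room temperature after 15 min compound preincubation; anti-monomethyl H3K9 antibody plus donor/acceptor beads, 10 min dark.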", "values": [
      {"smiles": "CN(C)CCCN(C(=O)c1ccc(S(=O)(=O)N2CCCC2)cc1)c1nc2c(F)cc(F)cc2s1", "Potency": "inconclusive: 56.2 µM [inhibitor, partial curve]"},
      {"smiles": "COc1ccccc1N1CCN(Cc2nc(-c3ccc(F)cc3)oc2C)CC1", "Potency": "inconclusive: 0.282 µM [inhibitor, partial curve, poor fit]"},
      {"smiles": "Cc1ccc(N(CC(=O)NCCSc2ccccn2)S(C)(=O)=O)cc1", "Potency": "active: 28.2 µM"},
      {"smiles": "Cc1ccccc1NC(=O)c1c(NC(=O)c2ccncc2)sc2c1CCC(C(C)(C)C)C2", "note": "(stereo not given)", "Potency": "active: 17.8 µM"},
      {"smiles": "CC1=C(C(=O)NC2CC(C)(C)Cc3c2cnn3-c2ccc(C)cc2)OCCO1", "note": "(stereo not given)", "Potency": "inconclusive: 25.1 µM [inhibitor, partial curve]"},
      {"smiles": "Cc1oc2c(c1C(=O)N1CCC(C)CC1)C(=O)c1ccccc1C2=O", "Potency": "inconclusive: 79.4 µM [inhibitor, single point]"},
      {"smiles": "CC1=C(c2ccc(NN=C(C#N)C#N)cc2)NNC(=O)C1", "Potency": "inconclusive: 2.24 µM [inhibitor, partial curve, poor fit]"},
      {"smiles": "Cc1ccc(OCC(=O)Nc2ccc3c(c2)nc2n3CCOC2)cc1", "Potency": "inconclusive: 89.1 µM [inhibitor, partial curve, poor fit]"},
      {"smiles": "NC(=O)C1CCCN(C(=O)Nc2cccc3ccccc23)C1", "note": "(stereo not given)", "Potency": "inconclusive: 1.41 µM [inhibitor, partial curve, poor fit]"},
      {"smiles": "CN(C)c1ccc(/C=C2\\CCCCC2=O)cc1", "Potency": "active: 50.1 µM"},
      {"smiles": "Cc1cc(C(=O)CN2C(=O)C(=O)N(C3CCCC3)C2=O)c(C)n1CCc1ccccc1", "Potency": "inconclusive: 39.8 µM [inhibitor, partial curve]"},
      {"smiles": "CCCCCc1c(O)nc(SCCN(CC)CC)[nH]c1=O", "Potency": "inconclusive: 79.4 µM [inhibitor, partial curve, poor fit]"},
      {"smiles": "Cc1cc(C)n2nc(CC(=O)NCc3ccc(F)cc3)nc2n1", "Potency": "inconclusive: 89.1 µM [inhibitor, single point]"},
      {"smiles": "O=c1[nH]c(SCc2n[nH]c(=S)n2-c2ccccc2)nc2sc3c(c12)CCC3", "Potency": "active: 2 µM"},
      {"smiles": "O=C(OCc1cc2ccccc2[nH]c1=O)c1cccs1", "Potency": "active: 20 µM"},
      {"smiles": "COc1ccccc1N1CCN(CC(=O)c2c(C)[nH]c3ccccc23)CC1", "Potency": "inconclusive: 100 µM [inhibitor, single point]"},
      {"smiles": "CCOC(=O)Nc1ccc2c(c1)N(C(=O)CCN1CCN3CCCC3C1)c1ccccc1CC2", "note": "(stereo not given)", "Potency": "inconclusive: 31.6 µM [inhibitor, single point]"},
      {"smiles": "Cc1ccc(CNc2oc(-c3ccc(COc4ccc(Cl)cc4)o3)nc2C#N)cc1", "Potency": "inconclusive: 12.6 µM [inhibitor, partial curve, poor fit]"},
      {"smiles": "CNS(=O)(=O)c1cc(-c2nn3c(C)nnc3c3ccccc23)ccc1C", "Potency": "inactive"},
      {"smiles": "CCOC(=O)c1c(NC(=O)c2cc(-c3ccc(Cl)cc3)on2)sc2c1CCCC2", "Potency": "active: 6.31 µM"},
      {"smiles": "O=C(N/N=C/c1ccncc1)c1ccc(OCc2ccccc2)cc1", "Potency": "inconclusive: 56.2 µM [inhibitor, single point]"},
      {"smiles": "Cc1ccccc1Cc1n[nH]c(=S)n1N", "Potency": "active: 2.51 µM"},
      {"smiles": "Cc1ccc2c(c1)C(=O)OC(C(=O)Nc1ncc(Cc3ccc(C(C)C)cc3)s1)C2", "note": "(stereo not given)", "Potency": "inactive"},
      {"smiles": "COc1ccccc1OCc1nnc(SCCN2CCOCC2)o1", "Potency": "active: 6.31 µM"},
      {"smiles": "O=C(Cc1ccc2c(c1)OCCO2)N1CCN(c2ccccc2)CC1", "Potency": "active: 50.1 µM"},
      {"smiles": "CN(C)S(=O)(=O)c1cccc(C(=O)Nc2cc(S(=O)(=O)N3CCOCC3)ccc2O)c1", "Potency": "inactive"},
      {"smiles": "Cc1cccc(Nc2nc(-c3cccs3)cs2)n1", "Potency": "active: 8.91 µM"},
      {"smiles": "Cc1ccc(Cl)cc1NS(=O)(=O)c1ccc2oc(=O)c3ncn(C)c3c2c1", "Potency": "inactive"},
      {"smiles": "Cc1ccc(C2CC2C(=O)NNC(=S)Nc2cccc(Cl)c2)cc1", "note": "(stereo not given)", "Potency": "inconclusive: 25.1 µM [inhibitor, single point]"},
      {"smiles": "Cc1c2cnn(CC(=O)N3CCCCC3)c(=O)c2c(C)n1Cc1ccc(F)cc1", "Potency": "inactive"},
      {"smiles": "Clc1ccc(OCCSCc2nc3ccccc3[nH]2)cc1", "activity, negative = inhibition": "inconclusive: -75.3% [inhibitor] [at 12.7 µM]"},
      {"smiles": "O=C(O)CC(CC(=O)N1CCN(C(=O)c2ccco2)CC1)c1ccccc1", "note": "(stereo not given)", "Potency": "inactive"},
      {"smiles": "COc1cc(/C=N/NC(=O)c2ccc(CSc3nncn3C)cc2)ccc1OCC(=O)N1CC(C)OC(C)C1", "note": "(stereo not given)", "Potency": "inactive"},
      {"smiles": "O=C(NCc1ccc2c(c1)OCO2)c1cc2c(s1)CSC2", "Potency": "active: 35.5 µM"},
      {"smiles": "CCOc1ccc2ncc(S(=O)(=O)c3ccccc3)c(N3CCN(c4ccc(OC)cc4)CC3)c2c1", "Potency": "inconclusive: 25.1 µM [inhibitor, single point]"},
      {"smiles": "CCOc1ccc(C(c2c(O)cc(C)n(CCOC)c2=O)N2CCN(c3ccccc3)CC2)cc1", "note": "(stereo not given)", "Potency": "inconclusive: 28.2 µM [inhibitor, single point]"},
      {"smiles": "CN(C)S(=O)(=O)c1cccc(-c2nnc(SCCNCCO)n2-c2ccc(F)cc2)c1", "Potency": "inconclusive: 39.8 µM [inhibitor, partial curve, poor fit]"},
      {"smiles": "O=C(CSc1nnc(SCc2ccc(Cl)cc2)s1)N1CCN(C(=O)c2ccco2)CC1", "activity, negative = inhibition": "inactive: -29.7% [at 12.7 µM]"},
      {"smiles": "COc1ccc(NC(=O)c2ccccc2Cl)c(NC(=O)c2ccco2)c1", "Potency": "inconclusive: 79.4 µM [inhibitor, single point]"},
      {"smiles": "Cc1cccc(NC(=S)NNC(=O)c2cc3c(s2)CCC(C)C3)c1C", "note": "(stereo not given)", "Potency": "inconclusive: 31.6 µM [inhibitor, single point]"},
      {"smiles": "Cc1c(C)n(Cc2ccccc2)c2ncnc(NCCN(C)C)c12", "Potency": "inconclusive: 70.8 µM [inhibitor, single point]"},
      {"smiles": "Cc1ccc(N(CC(=O)N2CCN(c3ccc(Cl)cc3)CC2)S(=O)(=O)c2c(C)nn(C)c2C)cc1", "Potency": "inactive"},
      {"smiles": "Oc1c(Br)cc(Cl)cc1C=Nc1ccc(N2CCOCC2)cc1", "Potency": "inconclusive: 100 µM [inhibitor, partial curve, poor fit]"},
      {"smiles": "Cc1ccccc1CSc1nnc(NC(=O)Cc2cccs2)s1", "Potency": "inactive"},
      {"smiles": "COc1cc(CNCc2cccnc2)ccc1OCC(=O)NC(C)(C)C", "Potency": "inconclusive: 63.1 µM [inhibitor, partial curve, poor fit]"}
    ]}
  ]
}
